Experiment [1] deals with T1, human BCMA-His protein (human, UniProt Q02223 1-54).
T1 construct: Bought protein; also called human BCMA protein; BCMA antigen protein; not shown: His tag
T1 sequence (looked up): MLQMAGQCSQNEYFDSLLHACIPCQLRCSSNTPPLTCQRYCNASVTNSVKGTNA
The experiment is described as follows: competition ELISA vs hAPRIL-biotin on coated human BCMA; antibody 1.23 nM. The method, then: (§1) The antigen protein was diluted with PBS to a final concentration of 1 μg/mL, and then added to a 96-well ELISA plate at 50 μl per well. The plate was sealed with a plastic film and incubated overnight at 4° C., the plate was washed twice with PBS the next day, and then a blocking solution [PBS+2% (w/v) BSA] was added for blocking at room temperature for 2 h. The blocking solution was discarded, the plate was washed 3 times with PBS, and 200 nM BCMA human-mouse chimeric antibody diluted gradiently or negative control antibody was added at 50 μl/well. hAPRIL-biotin (purchased from Acro, catalog number: APL-H82F5) was diluted to 0.5 μg/mL, with 50 μl per well. After incubation at 37° C. for 1.5 h, the plate was washed 3 times with PBS. HRP (horseradish peroxidase)-labeled secondary antibody (purchased from Sigma, catalog number: S2438-250 ug) was added, and incubated at 37° C. for 1 h, and the plate was washed 5 times with PBS. TMB substrate was added at 50 μl/well, and incubated at room temperature for 10 min, then a stop solution (1.0 M HCl) was added at 50 μl/well. The OD450 nm values were read by an ELISA microplate reader (Multimode Plate Reader, EnSight, purchased from Perkin Elmer).

Experiment [2] has as its target T1, human BCMA-His protein. The experiment is described as follows: competition ELISA vs hAPRIL-biotin on coated human BCMA; antibody 3.70 nM. The method, then:
as §1
(In general: An ELISA detects its analyte on a solid surface through an enzyme-linked reagent.)

For experiment [3], the target named is T1, human BCMA-His protein. Nature of the experiment: competition ELISA vs hAPRIL-biotin on coated human BCMA; antibody 11.11 nM. The protocol: as §1
For experiment [4], the target named is T1, human BCMA-His protein. Nature of the experiment: competition ELISA vs hAPRIL-biotin on coated human BCMA; antibody 33.33 nM. The method, then:
as §1

In experiment [5] the target is T1, human BCMA-His protein. Nature of the experiment: competition ELISA vs hAPRIL-biotin on coated human BCMA; antibody 0.14 nM. The protocol:
as §1

Experiment [6] deals with T1, human BCMA-His protein. The experiment is described as follows: competition ELISA vs hAPRIL-biotin on coated human BCMA; antibody 0.41 nM. The method, then: as §1
In experiment [7] the target is T1, human BCMA-His protein. Nature of the experiment: SPR, antibody captured on Protein A chip, BCMA-His in solution, 1:1 Langmuir. The protocol: A sample buffer and a running buffer were HBS-EP+ (10 mM HEPES, 150 mM NaCl, 3 mM EDTA and 0.05% surfactant P20) (GE Healthcare; BR-1006-69). The flow-through cell was set to 25° C. The sample block was set to 16° C. Both were pretreated with the running buffer. In each cycle, an antibody to be tested was first captured with a Protein A chip, and then a single concentration of BCMA antigen protein was injected. The binding and dissociation processes of the antibody and the antigen protein were recorded, and finally Glycine pH 1.5 (GE Helthcare; BR-1003-54) was used to complete chip regeneration. Binding was measured by injecting different concentrations of BCMA-His in solution for 240 s with a flow rate of 30 μL/min. The concentration started from 200 nM (see the detailed results for the actual concentration in the test) and was diluted at 1:1, making a total of 5 concentrations. The dissociation phase was monitored for up to 600 s and was triggered by switching from sample solution to running buffer. The surface was regenerated by washing with a 10 mM glycine solution (pH 1.5) for 30 s at a flow rate of 30 μL/min. Bulk refractive index difference was corrected by subtracting the response obtained from the goat anti-human Fc surface. Blank injection was also subtracted (=double reference). For calculation of apparent KD and other kinetic parameters, Langmuir 1:1 model was used. The binding rate (Kₐ), dissociation rate (Kdis) and binding affinity (KD) of the chimeric antibodies to human BCMA protein are shown in the table, wherein REGN5459-hlgG1 and HPN217-hHcAb antibodies were used as controls.

For experiment [8], the target named is T1, human BCMA-His protein. Nature of the experiment: competition ELISA vs hAPRIL-biotin on coated human BCMA; antibody 100.00 nM. The method, then: as §1

B1: BCMA-mAb03 (scFv)
scFv: QIPLVQSGPELKKPGETVKISCKASGYTFTNYAMTWVKQAPGKGLKWMGWIDTYSGVPTYADDFKGRFAFSLETSATTAYLQINNLKNEDTATYFCARVGVYGGYDTLDSWGQGTSVTVSSGGGGSGGGGSGGGGSDIQMTQTTSSLSASLGDRVTISCSASQGISNHLNWYQQKPDGTVKLLIYYTSSLHSGVPSRFSGSGSGTDYSLTISNLEPEDFATYYCQQYNNLPWTFGGGTKLEIK[human IgG1 Fc with C220S (EU numbers) not spelt out]
notes: also called BCMA human-mouse chimeric antibody (scFv-Fc)
As usually defined, the Kd is the equilibrium constant for the complex coming apart. High values mean weaker binding, low ones tighter binding. By koff is commonly meant a measure of how fast the partners let go of each other. By kon is commonly meant the second-order rate constant of association. Lower therefore signals slow association. B1: the OD450 with human BCMA-His protein [1] is 1.15 OD450; with human BCMA-His protein [2], 1.03 OD450; in the experiment with human BCMA-His protein [3], 0.44 OD450; with human BCMA-His protein [4], 0.09 OD450; in the experiment with human BCMA-His protein [5], 1.27 OD450; in the experiment with human BCMA-His protein [6] it was 1.24 OD450. In the experiment with human BCMA-His protein [8], the OD450 stood at 0.08 OD450. The same molecule displayed a Kd in the experiment with human BCMA-His protein [7] of 0.126 nM. In the experiment with human BCMA-His protein [7], this molecule gave a koff of 0.000146 s⁻¹. In the experiment with human BCMA-His protein [7], the kon came out at 1.16e+06 M⁻¹ s⁻¹.

B2: BCMA-mAb02 (scFv)
scFv: EVQLVESGGDLVQPGESLKLSCESNAYEFPSYDMSWVRKTPEKRLELVAAINSDGGITYYPDTMERRFIISRDNTKKTLYLQMSSLRSEDTALYYCARHGYGGGAYVLDYWGQGTSVTVSSGGGGSGGGGSGGGGSDIVMTQSQKFMSTTVGDRVRITCKASQNVGTAVAWYQQKPGQSPKVLIYSASSRYTGVPDRFTGSGSGTDFTLTINNMQSEDLADYFCQQYSNYHLTFGTGTKLELK[human IgG1 Fc with C220S (EU numbers) not spelt out]
notes: as for B1
Consider B2, for which the OD450 in the experiment with human BCMA-His protein [1] came out at 1.36 OD450; in the experiment with human BCMA-His protein [2] it was 1.27 OD450; with human BCMA-His protein [3], 0.57 OD450; with human BCMA-His protein [4], 0.18 OD450; with human BCMA-His protein [5], 1.47 OD450; in the experiment with human BCMA-His protein [6], 1.44 OD450. Also, the OD450 with human BCMA-His protein [8] is 0.12 OD450. In addition, in the experiment with human BCMA-His protein [7], the Kd was 0.196 nM. Moreover, the koff with human BCMA-His protein [7] came to 0.000253 s⁻¹. This molecule showed a kon in the experiment with human BCMA-His protein [7] of 1.29e+06 M⁻¹ s⁻¹.

B3: BCMA-mAb01 (scFv)
scFv: EVKLVESGGGLVQPGGSLKLSCAASGFTFSDFYMYWVRQTPEKRLEWVAYITNGGENTYFPDTVKGRFTISRDNAKNTLYLQMSRLKSEDTAMYYCARQNPFYYYDSNYDYAMDFWGQGTSVTVSSGGGGSGGGGSGGGGSDVVMTQTPLTLSVTIGQPASISCKSSQSLLYSNGKTYLSWLFQRPGQSPKRLIYLVSELDSGVPDRFTGSGSGTDFTLKISRVEAEDLGIYYCVQGTHFPHTFGGGTKLEIK[human IgG1 Fc with C220S (EU numbers) not spelt out]
notes: as for B1
With B3, the OD450 stood at 1.39 OD450 with human BCMA-His protein [1]; 1.1 OD450 with human BCMA-His protein [2]; 0.41 OD450 with human BCMA-His protein [3]; 0.18 OD450 with human BCMA-His protein [4]; 1.46 OD450 with human BCMA-His protein [5]; 1.46 OD450 in the experiment with human BCMA-His protein [6]. In the experiment with human BCMA-His protein [8], this molecule yielded an OD450 of 0.14 OD450. The same molecule returned a Kd with human BCMA-His protein [7] of 0.487 nM. For the same molecule, the koff with human BCMA-His protein [7] is 0.00082 s⁻¹. Moreover, the kon in the experiment with human BCMA-His protein [7] is 1.68e+06 M⁻¹ s⁻¹.

B4: BCMA-mAb04 (scFv)
scFv: QVQLQQSGAELARPGASVDLSCKASGYSFTSYGISWVKLRTGQGLEWIGEIYPRDDITYYNEKFKGKTTLTADKSSSTAYMELRSLTSEDSAVYFCARHDYYYVNSVSAMDYWGQGTSVTVSSGGGGSGGGGSGGGGSDIVMSQSPSSLAVSVGEKVTMSCKSSQSLLYSSNQKNYLAWYQQKPGQSPKLLIYWASTRYSGVPDRFTGSGSGTDFTLTVSSVRAEDLALYYCQQYYIYPWTFGGGTKLEIK[human IgG1 Fc with C220S (EU numbers) not spelt out]
notes: as for B1
As to B4, the OD450 with human BCMA-His protein [1] came out at 1.07 OD450; with human BCMA-His protein [2], 0.85 OD450; with human BCMA-His protein [3] it was 0.31 OD450; with human BCMA-His protein [4] it was 0.09 OD450; with human BCMA-His protein [5] it was 1.13 OD450; in the experiment with human BCMA-His protein [6], 1.11 OD450. Moreover, the OD450 with human BCMA-His protein [8] is 0.07 OD450. Further, in the experiment with human BCMA-His protein [7], binding was put at a Kd of 0.0935 nM. Also, the koff with human BCMA-His protein [7] turned out to be 0.000106 s⁻¹. In the experiment with human BCMA-His protein [7], this molecule gave a kon of 1.13e+06 M⁻¹ s⁻¹.
